# Measurements taken from the supplement of paper PMC11383711.
# Some of the results follow. Binding of human antibodies (heavy:light variable regions, tested as scFv in one mRNA-display pool) to influenza hemagglutinin, with or without the stem antibody CR9114 bound first. Score = (mean enrichment − median) / interquartile range of that screen; higher = more enriched, 0 = typical non-binder. Active = above the paper's cut-off per screen: stems 28; unblocked H1 Solomon Islands 5, H1 Michigan 3, H3 5, H5 19, H7 2.85, both B 5; blocked 9, 7, H5 10, H7 10, B Phuket 10, B Lee 11.5. Scores are scaled within each screen and are no affinities; replicates correlate at about 0.6 to 0.9, and antibodies rare in the pool are noisier.
# B1: R95-1G07 (protein)
# chain 1: EVQLVESGGGVVQPGRSLRLSCAASGFTFGSYAIHWVRQAPGKGLEWVAFDSNNKYYVDSVKGRFTTSRDNSKNTLYLQMDSLRAEDTAVYYCAREFQTYAFDYWGQGTLVTVST
# chain 2: SYELTQPPSVSVAPGQTARITCGGNNIGSKSVNWYQQKPGQAPVLVVYDDSDRPSGIPERFSGSNSGNTATLTISRVEAGDEADYHCQVWDSRSDHPVFGGGTKVTVL
# B2: AG12-C05 (protein)
# chain 1: VQLQESGPGLVKPLQTLSLTCTVSGVSIANNGFYWTWVRQRPGKGLEWIGNIFYSGDTSYSPSVERRLTISLDTSKNQFSLRLASVTAADTAVYYCTVESWYSSGPGENHFDSWGQGTLVTVSS
# chain 2: DIQMTQSPSSLSASVGDTVTITCRASETIKFYLNWYQQKPGKAPKLLMSPASSFHRGAPSRFSASGSGTDFSLTISSLQPEDFATYYCQQSYITPRTFGQGTKVEIK
# B3: W85-3B07 (protein)
# chain 1: QVQLQESGPGLVKPSETLSLTCSVSGDSITSYYCSWIRQSPGKGLEWIGYIYYTGSTNYNPSLKSRVTISVDTSKNQFSLKLSSVTAADTAVYYCARHGQLYDVWSGYYRGPEHRYFDLWGRGTLVTVSS
# chain 2: DIVMTQSPDSLAVSLGERATINCKSSQSVLYSSNNRNFLAWYQQKPGQPPKLLISWASARESGVPDRFSGSGSGTDFTLTISNLQAEDVALYYCQQYYTTPYTFGQGTKLEIK
# Biological target: Influenza A H1N1 A/Michigan/45/2015 hemagglutinin ectodomain
# Experiment: mRNA display binding score; higher = more enriched on the antigen
# Settings: antigen blocked with: 2 µM CR9114 IgG
# Protocol: (§1)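 A pool of natively paired antibodies, displayed as scFv on mRNA, was selected once on antigen-coated beads and sequenced before and after; two replicates.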
row,Binder,mRNA display binding score
1,B1,inactive: 2.39
2,B2,inactive: 0.386
3,B3,inactive: 0.26

# Same assay, conditions: antigen blocked with: nothing
row,Binder,mRNA display binding score
1,B1,inactive: 0.283
2,B2,inactive: 0.265
3,B3,inactive: 0.0837

# Biological target: Influenza A H1N1 A/Solomon Islands/3/2006 hemagglutinin ectodomain
# Experiment: as above
# Settings: antigen blocked with: 2 µM CR9114 IgG
# Protocol: as §1
row,Binder,mRNA display binding score
1,B1,inactive: 1.02
2,B2,inactive: -0.00683
3,B3,inactive: -0.0937

# Same assay, conditions: antigen blocked with: nothing
row,Binder,mRNA display binding score
1,B1,inactive: 0.659
2,B2,inactive: 0.399
3,B3,inactive: -0.13

# Biological target: Influenza A H3N2 A/Singapore/INFIMH-16-0019/2016 hemagglutinin ectodomain
# Experiment: as above
# Settings: antigen blocked with: nothing
# Protocol: as §1
row,Binder,mRNA display binding score
1,B1,inactive: 0.575
2,B2,inactive: 0.0251
3,B3,inactive: -0.364

# Biological target: Influenza A H5N1 A/Qinghai/1A/2005 hemagglutinin ectodomain
# Experiment: as above
# Settings: antigen blocked with: 2 µM CR9114 IgG
# Protocol: as §1
row,Binder,mRNA display binding score
1,B1,inactive: 7.88
2,B2,inactive: 4.52
3,B3,inactive: 0.0326

# Same assay, conditions: antigen blocked with: nothing
row,Binder,mRNA display binding score
1,B1,inactive: 12.1
2,B2,inactive: 3.89
3,B3,inactive: 0.0159

# Biological target: Influenza A H7N9 A/Shanghai/2/2013 hemagglutinin ectodomain
# Experiment: as above
# Settings: antigen blocked with: 2 µM CR9114 IgG
# Protocol: as §1
row,Binder,mRNA display binding score
1,B1,inactive: 0.957
2,B2,inactive: 0.441
3,B3,inactive: 0.0508

# Same assay, conditions: antigen blocked with: nothing
row,Binder,mRNA display binding score
1,B1,inactive: 0.0327
2,B2,inactive: 0.483
3,B3,inactive: 0.214

# Biological target: Influenza B/Lee/1940 hemagglutinin ectodomain
# Experiment: as above
# Settings: antigen blocked with: 2 µM CR9114 IgG
# Protocol: as §1
row,Binder,mRNA display binding score
1,B1,inactive: 10.7
2,B2,inactive: 9.4
3,B3,inactive: 1.49

# Same assay, conditions: antigen blocked with: nothing
row,Binder,mRNA display binding score
1,B1,active: 181
2,B2,active: 23.8
3,B3,active: 13.2

# Biological target: Influenza B/Phuket/3073/2013 hemagglutinin ectodomain
# Experiment: as above
# Settings: antigen blocked with: 2 µM CR9114 IgG
# Protocol: as §1
row,Binder,mRNA display binding score
1,B1,active: 128
2,B2,active: 35.4
3,B3,inactive: 2.35

# Same assay, conditions: antigen blocked with: nothing
row,Binder,mRNA display binding score
1,B1,active: 101
2,B2,active: 13.9
3,B3,inactive: 4.3
